# About 5,700 (2.6%) of roughly 220,000 compounds were called active. This list was built around the results that the source calls inconclusive (neither active nor inactive); the mix of calls is not that of the screen. The call rests on the fitted dose curve; in most records, active means well fitted inhibition curve with a large enough effect; inconclusive means small, poorly fitted or top-dose-only effect; inactive means no such curve, though single readings can be large or run the other way. Where the call is inconclusive, the potency comes from a doubtful curve fit.
# Biological target: Lysine-specific demethylase 5B (Homo sapiens) (UniProt Q9UGL1)
# Chain of UniProt Q9UGL1 (Q9UGL1 whole entry, looked up): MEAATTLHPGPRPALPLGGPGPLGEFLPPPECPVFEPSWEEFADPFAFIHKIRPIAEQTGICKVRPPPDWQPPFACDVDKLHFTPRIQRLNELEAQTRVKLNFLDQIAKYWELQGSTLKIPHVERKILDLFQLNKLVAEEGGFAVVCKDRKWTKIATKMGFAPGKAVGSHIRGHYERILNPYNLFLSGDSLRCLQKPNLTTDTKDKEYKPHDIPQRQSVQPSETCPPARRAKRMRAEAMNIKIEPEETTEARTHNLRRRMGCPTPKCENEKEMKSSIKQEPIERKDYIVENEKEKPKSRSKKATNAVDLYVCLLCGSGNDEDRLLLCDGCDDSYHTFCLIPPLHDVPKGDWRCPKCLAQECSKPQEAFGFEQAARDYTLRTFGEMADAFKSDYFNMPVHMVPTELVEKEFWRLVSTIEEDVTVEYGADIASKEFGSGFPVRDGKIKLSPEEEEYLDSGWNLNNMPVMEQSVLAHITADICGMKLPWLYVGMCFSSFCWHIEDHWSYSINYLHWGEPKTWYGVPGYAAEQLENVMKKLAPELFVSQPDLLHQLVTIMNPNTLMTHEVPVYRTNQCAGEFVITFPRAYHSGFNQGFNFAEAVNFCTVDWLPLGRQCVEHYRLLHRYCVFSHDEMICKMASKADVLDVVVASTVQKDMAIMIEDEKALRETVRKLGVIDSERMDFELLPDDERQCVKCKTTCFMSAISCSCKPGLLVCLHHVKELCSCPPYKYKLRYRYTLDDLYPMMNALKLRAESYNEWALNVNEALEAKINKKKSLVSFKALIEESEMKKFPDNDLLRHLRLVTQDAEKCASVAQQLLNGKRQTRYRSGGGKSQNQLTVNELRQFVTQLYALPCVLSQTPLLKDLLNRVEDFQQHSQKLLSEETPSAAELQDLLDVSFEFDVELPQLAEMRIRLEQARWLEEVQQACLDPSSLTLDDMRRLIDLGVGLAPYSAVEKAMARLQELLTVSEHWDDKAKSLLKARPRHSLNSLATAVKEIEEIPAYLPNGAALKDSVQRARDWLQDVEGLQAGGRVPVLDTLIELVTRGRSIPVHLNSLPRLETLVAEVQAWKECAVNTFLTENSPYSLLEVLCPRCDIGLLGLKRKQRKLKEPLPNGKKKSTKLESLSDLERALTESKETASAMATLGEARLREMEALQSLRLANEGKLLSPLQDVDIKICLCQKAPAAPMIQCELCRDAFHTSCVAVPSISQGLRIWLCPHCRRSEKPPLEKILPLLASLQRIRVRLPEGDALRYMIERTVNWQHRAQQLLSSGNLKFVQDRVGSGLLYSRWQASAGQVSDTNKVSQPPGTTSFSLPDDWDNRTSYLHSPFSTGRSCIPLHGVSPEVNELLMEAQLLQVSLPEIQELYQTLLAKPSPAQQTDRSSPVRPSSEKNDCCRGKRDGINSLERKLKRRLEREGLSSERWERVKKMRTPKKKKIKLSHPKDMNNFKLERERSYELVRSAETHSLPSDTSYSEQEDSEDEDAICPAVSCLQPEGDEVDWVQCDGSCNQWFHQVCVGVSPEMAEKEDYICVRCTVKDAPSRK
# Assay: Primary screen for KDM5B Histone Demethylases FDH-coupled qHTS; further: nearly all actives have a fitted effect of over 70% in size; on activity change, negative = inhibition: 0% is about no effect
# Conditions: FDH-coupled NADH fluorescence (FDH is formaldehyde dehydrogenase); activity change, negative = inhibition: at 57.7 µM (top of the series) unless noted
# Source text: Assay Submitter (PI): Qin Yan, Ph.D. (Yale University) and Xiaodong Cheng, Ph.D. (MD Anderson) This project was funded as part of the NCI NEXT Program and Chemical Biology Consortium (CBC) The histone demethylases, KDM5A and KDM5B catalyze the demethylation of lysine 4 on histone H3 (H3K4me3/2). They are overexpressed in a variety of cancers and have been implicated in cancer cell growth, metastasis, drug resistance, and tumor growth. KDM5A is amplified and overexpressed in breast and gastric cancer; and is translocated in leukemia. While KDM5B is highly expressed in human mammary tumors and breast cancer cell lines, but not in normal adult breast tissue. Moreover, knockdown of KDM5B leads to upregulation of tumor suppressor genes, including BRCA1. The goal of this project is to employ qHTS to identify selective small molecule inhibitors of KDM5A/B demethylase activity to better understand the role of KDM5 in cancer and to develop novel therapies. We employed an FDH-coupled assay previously reported by Sakurai et al. to monitor in vitro KDM5 demethylase activity. Compounds showing dose response inhibition are re-acquired, validated, and tested for non-specific interference with the formaldehyde dehydrogenase (FDH) counterscreen. True inhibitors are validated using an AlphaLisa secondary screen, which employs an H3K4(me2-1)-specific antibody to monitor demethylation of a biotin-tagged H3K4(me3) peptide substrate. Inhibitors are profiled against KDM4A and KDM6A AlphaLisa counterscreens to determine level of demethylase specificity; and against the TruHits counterscreen to eliminate non-specific inhibitory activity on the AlphaLISA detection method. Selective inhibitors identified from the primary and secondary screening are tested in cells using immunofluorescence to monitor global H3K4 tri-methylation as a measure of KDM5A/B inhibition. Early Translation Branch (ETB) National Center for Advancing Translational Sciences (NCATS), Rockville, MD National Institute of Health (NIH), Bethesda, Maryland [1] Sakurai, M et al. A miniaturized screen for inhibitors of Jumonji histone demethylases. Mol Biosyst. 2010 Feb;6(2):357-64. doi: 10.1039/b912993f. Epub 2009 Oct 8.
# Materials: 1536-well Black, solid bottom, medium binding assay plate is purchased from Greiner Bio-one. The enzymes (KDM5B) and substrate (H3K4me3/2) are provided by the principal investigators. The buffer for this assay is composed of 50mM HEPES at pH 7.5 with 0.01% Tween-20. FDH coupled Demethylase qHTS protocol: Three microliter enzyme mix (buffer + 200nM KDM5BDeltaAP final concentration) is dispensed into the assay plate using the BioRAPTR Flying Reagent Dispenser (FRD; […]). Compound (at various final concentration) and control solution is pin transferred to the assay plate using the Kalypsys 1536-pin tool apparatus. The assay plate is incubated for 10 min at room temperature followed by addition of 1uL substrate mix (buffer + 100uM ascorbic acid, 50uM ferrous ammonium sulfate, 12.5uM H3K4Me3, 25uM a-ketoglutarate, 0.25 mM NAD+, 0.25 U/mL formaldehyde dehydrogenase using the FRD yielding a total reaction volume of 4 uL. Initial fluorescence (Read1) is detected using the PerkinElmer ViewLux plate reader equipped with 340 nm excitation and 450 nm emission filters. The final fluorescence (Read2) signal is obtained after 30 min of room temperature incubation. Delta RFU is calculated (Read2 - Read1) and is used to generated dose response curves.
# Potency means the concentration at half of the fitted maximal effect; tags describe the fitted curve by direction and shape.
SMILES,Potency,"activity change, negative = inhibition"
O=C(Nc1ccc(Cl)cc1)c1ccc2c(c1)n(Cc1ccccc1)c(=O)c1ccnn12,active: 20 µM,–
COc1ccc(CCNC(=O)CSc2ccc(-c3ccccn3)nn2)cc1OC,–,inactive: 5.45%
CCC(=O)N1CCc2c(sc3ncnc(Nc4ccccc4)c23)C1,"inconclusive: 28.2 µM [inhibitor, single point]",–
O=C(c1ccccc1)C(O)C(c1ccccc1)N1CCOCC1 (stereo not drawn),"inconclusive: 15.8 µM [inhibitor, partial curve, poor fit]",–
O=C(NC1CCCCC1)c1ccc(CSc2nc3cccnc3n2Cc2ccccc2F)cc1,"inconclusive: 35.5 µM [inhibitor, partial curve, poor fit]",–
COc1ccc(-c2nn(-c3ccccc3C)c(OC(C)=O)c2-c2ccc(NC(C)=O)cc2)cc1OC,active: 28.2 µM,–
COc1ccc2[nH]c3c(c2c1)CCNC31CCN(C(=O)CC(C)C)CC1,"inconclusive: 25.1 µM [inhibitor, single point]",–
Cc1cc(=O)oc2cc(OCC(=O)NCCCn3ccnc3)ccc12,"inconclusive: 28.2 µM [inhibitor, single point]",–
COC(=O)c1cc(NC(=O)CCc2c(C)nc3cc(-c4ccccc4)nn3c2C)cc(C(=O)OC)c1,"inconclusive: 31.6 µM [inhibitor, partial curve, poor fit]",–
CC1CCN(S(=O)(=O)c2cc(C(=O)Nc3ccc(Br)cc3F)n(C)c2)CC1,"inconclusive: 28.2 µM [inhibitor, partial curve, poor fit]",–
Cc1ccc(-c2cc(C(=O)N3CCN(c4ccccc4)CC3)c3ccccc3n2)cc1C,"inconclusive: 28.2 µM [inhibitor, partial curve, poor fit]",–
CC(C)NC(=O)NC[C@H]1O[C@@H](CC(=O)N2CCN(c3ccc(F)cc3)CC2)[C@H](O)[C@@H]1O,–,inactive: -8.04%
COc1ccc(-c2nc3c(s2)CN(S(C)(=O)=O)CC3)cc1OC,"inconclusive: 35.5 µM [inhibitor, partial curve, poor fit]",–
COc1ccc(-c2cnc3[nH]cc(CC(=O)NCc4cccnc4)c3c2)cn1,"inconclusive: 39.8 µM [inhibitor, single point]",–
CCCN(C)c1nccnc1OC1CCN(C(=O)c2ccnn2C)C1 (stereo not drawn),"inconclusive: 20 µM [inhibitor, partial curve, poor fit]",–
Cc1ccc(NS(=O)(=O)c2cc(-c3cnc(C)o3)ccc2C)c(Cl)c1,–,inactive: -14.7%
COc1cccc(-c2cn3c(n2)sc2cc(C(=O)NCc4ccccc4F)ccc23)c1,"inconclusive: 31.6 µM [inhibitor, partial curve, poor fit]",–

SMILES,Potency,"activity change, negative = inhibition"
N#Cc1ccnc(N2CCN(C(=O)Nc3ccc(F)cc3)CC2)c1,–,inactive: 21.4%
Cc1ccc(-c2nnc(C3CN(C(=O)C4CCCCCC4)CC34CCOCC4)o2)cc1 (stereo not drawn),–,inactive: 26.8%
O=C(NCCc1ccccc1)c1ccc(CSc2nc3cccnc3n2Cc2ccccc2F)cc1,"inconclusive: 28.2 µM [inhibitor, partial curve, poor fit]",–
COc1ccc(C2=C(C)C(=O)N(Cc3ccc(C(=O)Nc4ccc(F)cc4C)cc3)S2(=O)=O)cc1,"inconclusive: 25.1 µM [inhibitor, partial curve, poor fit]",–
O=C(NCCc1ccccc1)C1CC(=O)N(c2n[nH]c3ccccc23)C1 (stereo not drawn),"inconclusive: 35.5 µM [inhibitor, single point]",–
O=C1CN(C(=O)c2ccc(S(=O)(=O)N3CCCCC3)cc2)C(c2ccc(F)cc2)c2cc(Cl)ccc2N1 (stereo not drawn),"inconclusive: 25.1 µM [inhibitor, single point]",–
CCCCNC(=O)c1ccccc1N,"inconclusive: 22.4 µM [inhibitor, partial curve, poor fit]",–
O=C(CSc1ncnc2ccccc12)Nc1cc(Cl)ccc1Cl,–,inactive: 1.9%
CCC(C)[C@H](NC(=O)Nc1cc(-c2n[nH]c(=O)c3ccccc23)ccc1C)C(=O)OC (stereo partly drawn),–,inactive: 5%
COc1ccc(OC)c(NC(=O)Cn2ncc3c2-c2ccccc2OC3)c1,"inconclusive: 28.2 µM [inhibitor, partial curve, poor fit]",–
O=C(NCCc1ccc(Cl)cc1)C1(c2cccs2)CCOCC1,–,inconclusive: -37.8% [inhibitor]
Cc1c(Cl)cccc1NC(=O)CSc1nc(=O)[nH]c2c1CCCC2,–,inactive: -17.2%
CCc1nc2c(NC(=O)c3ccc(F)c(Cl)c3)cccn2n1,active: 25.1 µM,–
O=C(O)c1cc(Cl)ccc1F,–,inactive: 14.4%
CCCCCCCNC(=O)CCC(=O)NCCC(C)C,–,inactive: 20.5%
CC(C)n1c(CN2CCN(Cc3ccccc3)CC2)nc2ccccc21,"inconclusive: 39.8 µM [inhibitor, single point]",–

# — PubChem BioAssay AID1347165 (National Center for Advancing Translational Sciences (NCATS), 2019)
